From the supplement of paper PMC3334620
The full ranking holds about 33,000 sequences; the median of “E-score (-0.5 to 0.5)” is about -0.041, and the highest 2% start at about 0.37. This is one part of the list.

molecular target: T1, Ecm22 (UniProt Q05958); experiment: PBM E-score (8-mer binding enrichment) (E-score (-0.5 to 0.5)); higher = stronger / more preferred TF binding; most listed sequences are background and not binding sites; settings: protein concentration: 200 nM; construct: GST-full length
T1 sequence: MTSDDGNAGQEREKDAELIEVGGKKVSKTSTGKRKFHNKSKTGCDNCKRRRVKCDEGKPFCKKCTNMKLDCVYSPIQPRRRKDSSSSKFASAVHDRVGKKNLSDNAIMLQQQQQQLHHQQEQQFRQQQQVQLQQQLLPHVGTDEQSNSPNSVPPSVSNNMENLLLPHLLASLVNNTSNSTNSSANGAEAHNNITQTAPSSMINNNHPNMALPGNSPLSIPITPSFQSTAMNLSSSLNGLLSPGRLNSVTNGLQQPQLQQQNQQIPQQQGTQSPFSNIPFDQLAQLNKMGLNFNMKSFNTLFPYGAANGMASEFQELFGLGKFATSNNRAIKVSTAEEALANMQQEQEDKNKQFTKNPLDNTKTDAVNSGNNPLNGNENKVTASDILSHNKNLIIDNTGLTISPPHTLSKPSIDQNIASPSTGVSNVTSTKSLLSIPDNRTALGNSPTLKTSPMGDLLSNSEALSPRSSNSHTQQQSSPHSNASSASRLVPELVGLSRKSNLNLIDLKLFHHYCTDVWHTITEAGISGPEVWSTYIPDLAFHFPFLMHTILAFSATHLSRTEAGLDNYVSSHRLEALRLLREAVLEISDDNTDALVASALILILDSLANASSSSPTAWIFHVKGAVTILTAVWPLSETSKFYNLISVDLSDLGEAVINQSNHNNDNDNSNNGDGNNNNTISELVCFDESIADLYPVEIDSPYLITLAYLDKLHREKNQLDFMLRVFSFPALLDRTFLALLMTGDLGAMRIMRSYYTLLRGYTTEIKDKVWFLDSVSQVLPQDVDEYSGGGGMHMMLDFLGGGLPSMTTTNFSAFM
Summary of the method: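 Yeast transcription factors carrying a GST tag, as full-length proteins or DNA-binding domains, were produced by PURExpress in vitro transcription/translation. About 100-200 nM protein was applied to universal all-10-mer Agilent arrays, double-stranded by primer extension on fresh or once-stripped slides. Bound protein was detected with fluorescent anti-GST, and scans were normalised with masliner. The Universal PBM Analysis Suite gave each ungapped eight-base word, pooled with its reverse complement, an E-score, a modified Wilcoxon-Mann-Whitney statistic.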

| Sequence | PBM E-score |
| --- | --- |
| TCCCAGGA | -0.248 |
| GATAGAAA | -0.0382 |
| GAATTCCA | -0.108 |
| AAATCTTC | -0.0321 |
| CCCGGTCC | -0.0361 |
| CACGTGGG | -0.149 |
| AGAAAATA | 0.0171 |
| TTAAGAAA | -0.0929 |
| AAAAATAA | 0.115 |
| GCTCAAGC | -0.0228 |
| CCGTAGAA | 0.122 |
| ACCGCGAC | 0.0412 |
| GGACGCTA | -0.177 |
| AAGCTTGC | -0.144 |
| GGCCCATA | -0.179 |
| AGGTAGAG | -0.266 |
| CGGCAGTA | -0.0667 |
| ACAGCGAC | 0.0281 |
| ATTCCCGG | -0.114 |
| AGATACTG | -0.0213 |
| ACTCTCAC | -0.0437 |
| AATTGCGT | 0.0718 |
| CATAATAA | 0.175 |
| CCTGAATA | 0.101 |
| CACACAGC | -0.0697 |

| Sequence | PBM E-score |
| --- | --- |
| AATATTGC | 0.247 |
| AATGACGA | 0.0411 |
| CCTTGTCA | -0.245 |
| AGCGCTCA | -0.133 |
| AAATGTGA | -0.175 |
| CGAATTCG | 0.0698 |
| GAACGCGA | 0.206 |
| AGAGCAGA | -0.0559 |
| CGCGCACC | 0.129 |
| ATATGTAC | 0.115 |
| ACCGTATA | 0.459 |
| AAGCCGCT | -0.0703 |
| ATAGAAAA | 0.0894 |
| AGACGGAT | 0.0104 |
| CAGAGGCA | -0.193 |
| CTCGCCGA | 0.134 |
| AGTATAAT | -0.0427 |
| ACGTGTAC | 0.107 |
| AGGCGTTA | -0.223 |
| CAATCCAA | 0.0239 |
| ATCGGATC | 0.179 |
| CAAAGATA | -0.0644 |
| TACTACCA | -0.0787 |
| CGTCCAGA | -0.212 |
| GCATATCC | 0.0197 |

| Sequence | PBM E-score |
| --- | --- |
| CCGGACAC | -0.176 |
| ATCTTGCA | 0.0319 |
| GAAGCACC | -0.088 |
| CCGTGCAG | -0.127 |
| GACTACTC | 0.0944 |
| GTCGTAAA | 0.473 |
| CCAACACC | -0.253 |
| AAAACTCC | -0.211 |
| AAAGTGTG | -0.168 |
| ATTGGGAG | -0.187 |
| TAGCAATA | 0.153 |
| ACCAAAGA | -0.215 |
| CACTACTC | -0.0352 |
| AGAACAAT | -0.0916 |
| CGTATAGC | 0.477 |
| GGCATTGA | -0.0257 |
| AAATTCGA | -0.0581 |
| TCCACACA | -0.107 |
| AGATCGAC | 0.199 |
| CAGTGTCG | 0.069 |
| CTAAAAAG | -0.0394 |
| GCCAAGGC | -0.203 |
| AATATTTA | 0.0828 |
| ATGCACTG | -0.0645 |
| ACACGGTC | -0.0081 |

| Sequence | PBM E-score |
| --- | --- |
| AGTTACAG | -0.119 |
| CACGATAG | -0.065 |
| CCAAATGA | 0.134 |
| AGCTGGGC | -0.132 |
| GCAGTCAA | -0.00987 |
| GATCATTA | 0.0891 |
| CGAACGCC | 0.0398 |
| AGCGGAAT | -0.13 |
| ATCCAGCA | -0.158 |
| CCGCATAC | 0.163 |
| GCGTATAC | 0.406 |
| GGTCAGCA | 0.161 |
| ATGGAGTA | 0.0683 |
| AGGAGAAC | -0.0736 |
| CGTTGTAC | 0.275 |
| GTGAGGGA | -0.207 |
| TAAGCACA | 0.028 |
| GTCCTCAA | -0.0954 |
| AATTCTGA | -0.0999 |
| CGGGTCCC | -0.0346 |
| ATCCCATG | -0.299 |
| ATGTGCTC | 0.0294 |
| GACGCGGA | -0.00772 |
| CAACGTCG | 0.249 |
| CTCAAGGC | -0.203 |

| Sequence | PBM E-score |
| --- | --- |
| ATACACTC | 0.194 |
| CATATTAA | 0.12 |
| ACAGCCGG | 0.0245 |
| ACCAAGCA | -0.0685 |
| ACCGCCTA | -0.0229 |
| ACAGCACC | -0.276 |
| AGTTATGC | -0.0646 |
| CCATTTTC | -0.105 |
| GGTTTGGA | -0.0817 |
| ATGTCGTG | 0.0288 |
| AGTTATAA | -0.147 |
| CTAATTCA | -0.0319 |
| CGTACAAG | 0.416 |
| CGCATGTA | 0.0596 |
| AAGCTCGA | 0.0757 |
| ACTGTTAC | 0.137 |
| ATGTCTGA | -0.26 |
| CAGTGAAA | 0.0739 |
| ACATTAAC | 0.0785 |
| ACGAGGAT | 0.387 |
| AGTTCCGC | 0.09 |
| AGCGTCCT | -0.0237 |
| CTCCTTAC | -0.0103 |
| GTTTTTCA | -0.0423 |
| ATGGGATA | -0.134 |

| Sequence | PBM E-score |
| --- | --- |
| ATCGCATA | 0.289 |
| GAAAACCA | -0.164 |
| TGACTCAA | 0.0196 |
| ATCCAAAT | 0.0399 |
| GCGGGCCC | -0.241 |
| ATTCCCAA | -0.0415 |
| CCCTCTTC | 0.0455 |
| ACTGCTCA | 0.0103 |
| AGATTCCG | -0.132 |
| GGTCCTTA | -0.116 |
| CAAAAGGA | -0.01 |
| AGAGAGCT | -0.169 |
| CCAGGCCG | -0.0156 |
| CGCACATA | -0.0429 |
| AGTTGGGG | -0.126 |
| ATTCAAGA | -0.0721 |
| GACGAACA | 0.0113 |
| GGCAGAAA | 0.156 |
| CGCTAGTC | -0.237 |
| GTCCTCAC | -0.152 |
| AACGGCTA | 0.151 |
| ATAGGCCC | -0.166 |
| AAGCAATA | -0.0375 |
| AAGTACAC | 0.12 |
| CTCGTCTA | 0.142 |

| Sequence | PBM E-score |
| --- | --- |
| AGACAGTG | -0.166 |
| GAAATCTA | 0.0244 |
| AGCACAGA | -0.0411 |
| AGACTTTA | -0.112 |
| AGGGAATG | -0.23 |
| CCTGTCGC | 0.0728 |
| AGAATTCT | 0.107 |
| ATGTCTGG | -0.0247 |
| GTAGTTTA | 0.0546 |
| CCTTTTTC | -0.205 |
| GAATAGCA | -0.0396 |
| ACCCCGTA | 0.32 |
| AAAAAAAC | -0.137 |
| GAAACGAC | 0.41 |
| CAAGGACG | -0.122 |
| ACCTAACA | 0.149 |
| GCTGCACA | -0.152 |
| ACTTGAGG | -0.234 |
| CGCCGGCA | -0.119 |
| ACGGGCCA | -0.0769 |
| CAAAGGCC | -0.162 |
| CCCCTGCG | -0.11 |
